From paper PMC4336329 (PLoS ONE, 2015)
The campaign covered roughly 310,000 compounds. About 14,000 (4.5%) showed an effect of 50% or more. Effects have a minus sign here. The list shows a part of the results.

biological target: human ether-à-go-go-related gene (hERG) potassium channel (human, UniProt Q12809); assay: primary screen, population patch clamp on CHO cells stably expressing hERG
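Further: peak tail current of the secondary pulse compared with the same well before compound.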

Chain of human ether-à-go-go-related gene (hERG) potassium channel (Q12809 whole entry, looked up): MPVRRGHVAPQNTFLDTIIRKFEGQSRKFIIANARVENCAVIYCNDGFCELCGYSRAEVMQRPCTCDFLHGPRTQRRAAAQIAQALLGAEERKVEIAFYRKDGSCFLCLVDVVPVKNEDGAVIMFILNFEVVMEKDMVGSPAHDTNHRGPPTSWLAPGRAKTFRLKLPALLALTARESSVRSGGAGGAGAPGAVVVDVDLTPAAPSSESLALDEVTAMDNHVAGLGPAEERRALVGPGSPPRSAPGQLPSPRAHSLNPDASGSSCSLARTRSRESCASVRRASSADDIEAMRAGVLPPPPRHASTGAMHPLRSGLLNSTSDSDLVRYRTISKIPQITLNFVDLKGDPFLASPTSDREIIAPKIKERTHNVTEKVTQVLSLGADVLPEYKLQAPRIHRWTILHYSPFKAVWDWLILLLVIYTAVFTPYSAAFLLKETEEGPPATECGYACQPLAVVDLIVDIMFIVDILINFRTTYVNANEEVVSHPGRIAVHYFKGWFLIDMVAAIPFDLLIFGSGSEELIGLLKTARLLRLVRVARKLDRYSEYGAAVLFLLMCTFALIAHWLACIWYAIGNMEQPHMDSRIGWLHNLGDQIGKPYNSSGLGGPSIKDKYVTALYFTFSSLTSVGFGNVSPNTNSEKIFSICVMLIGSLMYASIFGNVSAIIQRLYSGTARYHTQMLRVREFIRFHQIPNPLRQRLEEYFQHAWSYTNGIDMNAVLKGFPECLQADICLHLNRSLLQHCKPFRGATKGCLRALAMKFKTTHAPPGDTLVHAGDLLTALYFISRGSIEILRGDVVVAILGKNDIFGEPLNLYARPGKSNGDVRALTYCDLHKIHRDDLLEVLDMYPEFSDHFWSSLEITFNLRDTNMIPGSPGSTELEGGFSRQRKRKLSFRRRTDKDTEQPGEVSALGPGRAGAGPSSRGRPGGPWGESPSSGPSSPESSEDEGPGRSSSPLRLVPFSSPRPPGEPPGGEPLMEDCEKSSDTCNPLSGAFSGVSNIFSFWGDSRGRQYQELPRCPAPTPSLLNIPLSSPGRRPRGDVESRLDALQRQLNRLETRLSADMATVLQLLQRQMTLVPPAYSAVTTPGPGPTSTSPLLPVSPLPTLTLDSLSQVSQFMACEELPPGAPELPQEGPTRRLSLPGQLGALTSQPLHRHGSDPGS

SMILES	hERG current change (%, negative = inhibition) at 10uM
Cc1ccc(Nc2nc(C)c3c(n2)CC(C)CC3=O)c(C)c1 (centres unmarked)	-5.19%
CC(C)Cc1cc(C(=O)Nc2ccc(F)cc2F)no1	-2.85%
O=C(Nc1ccc(Br)cc1)/C(=C/c1cccc([N+](=O)[O-])c1)NC(=O)C1CCCCC1	-16%
CCC(C)n1cnc2c(=O)oc3ccccc3c21 (centres unmarked)	-12%
N#Cc1ccccc1OCC(=O)Nc1ccccc1C(=O)NC1CC1	-5.44%
Nc1nc(Nc2cccc(F)c2)nc(N2CCOCC2)c1[N+](=O)[O-]	-26.7%
CC(=O)Oc1ccc(Oc2ccc(-c3noc(C)n3)cc2)cc1	18.1%
CC(=NCCN1CCCCC1)c1c(O)[nH]c(=O)[nH]c1=O	-1.06%
Cc1onc(-c2c(F)cccc2Cl)c1C(=O)OCC(=O)NCc1ccco1	5.77%
Cc1ccc(Cl)cc1-n1c(=O)cc(N2CC(C)OC(C)C2)[nH]c1=O (centres unmarked)	0.474%
O=C(COc1ccccc1Cl)Nc1ccc(CN2CCOCC2)cc1	-22.9%
O=C(O)C1CCCN1c1nc(C(F)(F)F)nc2ccccc12 (centres unmarked)	12.3%
CCN(C(=O)COC(=O)c1ccc(O)cc1O)c1c(N)n(Cc2ccccc2)c(=O)[nH]c1=O	-7.36%
COc1ccc(OC(=O)CCN2C(=O)C3C4C=CC(C4)C3C2=O)cc1 (centres unmarked)	-7.8%
CCOC(=O)N/N=C/c1c(F)cccc1F	11.2%
c1cc2c3c(cccc3c1)C(N1CCCCC1)=N2	-66.2%
CCOc1ccc(C(C)=O)cc1COC(=O)CN1C(=O)NC2(CCCC2)C1=O	-1.97%
COC(=O)c1cc2sccc2n1CC(=O)N(C)c1ccccc1	15.5%
Cc1cc2ccccc2n2c(SCC(=O)N3CCc4ccccc4C3)nnc12	-31.4%
Cc1cc(C(=O)NC(Cc2c[nH]c3ccccc23)C(=O)O)c(C)o1 (centres unmarked)	21.2%
CCS(CC)=NS(=O)(=O)c1ccc(NC(C)=O)cc1	-0.197%
COc1cc(OC)nc(NC(=O)CSc2nnc(-c3ccccc3)n2C2CCCCC2)n1	-4.3%
CC(C)(CSc1ccccn1)NS(=O)(=O)c1ccccc1	-10.3%

SMILES	hERG current change (%, negative = inhibition) at 10uM
Cn1cc(C(=O)C(=O)N2CCCC2)c2ccccc21	12.7%
CCN(CC)CCNC(=O)c1ccc(NC(=O)COc2ccccc2F)cc1.Cl	-18.9%
CCOC(=O)C1(Cc2ccccc2C(F)(F)F)CCN(CC(O)CO)CC1 (centres unmarked)	-3.71%
COc1cccc(-c2nn(-c3ccccc3)cc2/C=C\C(=O)c2cccs2)c1	15.6%
CC(=O)Nc1cccc(NC(=O)CSc2ccc(-c3ccco3)nn2)c1	0.763%
CSC(=NC1CCCCC1)NS(=O)(=O)c1ccccc1	-8.98%
CCc1nn2c(=O)cc(COc3ccc(/C=C4\C(=N)N5N=C(C)SC5=NC4=O)cc3)nc2s1	8.16%
CCOC(=O)c1cn(-c2nc(-c3ccc(Cl)c(Cl)c3)cs2)c2c(F)c(N3CCOCC3)c(F)cc2c1=O	20.5%
Cc1ccccc1NC(=O)NC1CCCCC1C (centres unmarked)	3.94%
COc1ccc(CCC(=O)N2CCCC(Nc3ccc(OC)cc3)C2)cc1 (centres unmarked)	-6.96%
CCn1c(SCC(=O)N/N=C/c2cccs2)nc2ccccc21	-32%
Oc1c(Br)cc(Br)cc1C=Nc1cccc2ncccc12	0.658%
COc1ccc(NC(=O)c2oc3ccccc3c2NC(=O)c2ccco2)c(OC)c1	6.32%
CCOc1ccc(C(=O)Nc2cc(C)c3c(=O)oc4ccccc4c3n2)cc1	11.5%
COc1ccc(NC(=O)CS(=O)CC(=O)NC2CCCc3ccccc32)cc1 (centres unmarked)	-10.3%
CN(CC(O)COC(c1ccccc1)c1ccccc1)C1CCCCC1 (centres unmarked)	-68.4%
Cc1ccc(CN2CCN(Cc3cnc(C)[nH]3)CC2CCO)cc1 (centres unmarked)	10.8%
C=CCn1c(O)c(C(C)=Nc2ccc(N(C)C)cc2)c(=O)[nH]c1=O	-0.69%
Cn1c(NCc2c[nH]c3ccccc23)nc2ccccc21	-28.7%
c1ccc(-c2nc(NCCCn3ccnc3)c3ccccc3n2)cc1	-59.3%
CCOC(=O)c1cccc(NC(=O)C2(S(=O)(=O)c3ccc(Cl)cc3)CC2)c1	-27.1%
O=[N+]([O-])c1cccc(S(=O)(=O)NCCc2cccs2)c1	-36.4%
C/C(=N\OCC(=O)Nn1c(C)nc2ccccc2c1=O)c1cccs1	-5.66%

SMILES	hERG current change (%, negative = inhibition) at 10uM
CC1CCN(c2ccc(-c3ccc(NC(=O)c4ccco4)cc3)nn2)CC1	19%
COc1ccccc1OCC(=O)Nc1ccc(S(=O)(=O)N2CCN(C)CC2)cc1	-15%
C[C@@H]1CC=C[C@H]2[C@H]1C(=O)N(Cc1ccccc1)[C@H]2c1cccc([N+](=O)[O-])c1	-8.38%
COc1ccc(CC(=O)OCC(=O)NCc2ccco2)cc1OC	16.6%
O=c1[nH]c(C2CCCN(S(=O)(=O)c3ccccc3Cl)C2)nc2c1nnn2Cc1ccc2c(c1)OCCO2 (centres unmarked)	7%
Cc1ccc2c(c1)C(C)CC(C)(C)N2C(=O)CN1CCN(C)CC1.O=C(O)C(=O)O (centres unmarked)	-23.6%
Cc1ccc(Sc2cnccc2C#N)cc1	1.09%
Cc1cc(C)c2c(n1)nn1c(C)c(CCC(=O)NCc3ccco3)c(C)nc21	-12.1%
CCn1cc(C(=O)c2cccs2)c2ccccc21	-1.99%
COc1ccc(NC(=S)Nc2ccc3nccnc3c2)cc1	17.2%
CN1CCN(S(=O)(=O)c2ccc(Oc3ccc(F)c(Cl)c3)nc2)CC1	5.14%
Cc1cccc(S(=O)(=O)Nc2nc3ccccc3nc2OC(C)C)c1	20.6%
COc1cccc(CC(=O)Nc2cc(C(F)(F)F)ccc2N2CCCC2)c1	5.15%
CC(NC(=O)CSCc1ccc(Br)cc1)c1ccccc1 (centres unmarked)	-9.55%
Cc1cccc(-n2ncc3c(NCc4cccnc4)ncnc32)c1	-41.1%
O=C(COC(=O)c1ccc(O)cc1O)Nc1ccc(Cl)cn1	3.23%
Cc1ccc(-c2nnc(SCC(=O)NC(=O)Nc3ccc(C)cc3C)n2N)cc1	3.49%
COc1ccc2c(=O)c(-c3ccccc3C)c(C)oc2c1	-15.8%
CC(NC(=O)COC(=O)C1CCN(S(=O)(=O)c2ccccc2C(F)(F)F)CC1)c1ccccc1 (centres unmarked)	-5.68%
CCN(CC)CCCNC(=O)Cc1c(C(=O)O)n(C)c2ccccc12	14.6%
CC1(C)C(c2ccccc2)=[N+]([O-])CN1O	-5.85%
COc1ccc(S(=O)(=O)Nc2c(C)nc3nc(C)[nH]n3c2=O)cc1	30.4%
COc1cccc(C(c2sc3nc(C)nn3c2O)N2CCC3(CC2)OCCO3)c1 (centres unmarked)	1.93%

SMILES	hERG current change (%, negative = inhibition) at 10uM
O=C(O)CSCC(=O)NCc1cccc(C(F)(F)F)c1	-4.98%
CS(=O)(=O)Nc1ccccc1C(=O)Nc1cc(Cl)cc(Cl)c1	-0.347%
O=C(NN1CCOCC1)c1cccc(COc2cccc(Br)c2)c1	-0.949%
O=C(CSc1n[nH]c(=O)[nH]c1=O)N1CCCCCC1	-3.56%
O=C(NN=C1C2CC3CC(C2)CC1C3)c1ccccc1O	2.43%
Cl.c1ccc(CN2CCN(c3nc(N4CCOCC4)c4ccccc4n3)CC2)cc1	-70.3%
CCOC(=O)C1CCCN(C(=O)c2ccc(C(=O)c3ccccc3)cc2)C1 (centres unmarked)	-49.9%
Cc1ccc(NC(=O)CN(C)CC(=O)Nc2ccccc2C(=O)Nc2ccccc2)cc1	-33.1%
CC(C)(C)c1ccc(-c2nnc(N)o2)cc1	7.37%
Cc1cc(N2CCCC2)nc2c(C)cccc12	-21.6%
O=C(O)CCN1C(=O)c2ccc(Oc3ccc4c(c3)C(=O)N(CCC(=O)O)C4=O)cc2C1=O	6.2%
Cc1cc(=O)oc2c3c(cc(OCC(=O)N[C@@H](CC(C)C)C(=O)O)c12)OC(C)(C)CC3	2.76%
N#Cc1c(N)oc(-c2ccco2)c1-c1ccco1	1.98%
CCCc1nn(C(=O)c2ccccc2)c2c1C(=O)CC(C)(C)C2	11.5%
O=C(CC1NC2CCCCC2NC1=O)Nc1ccc2c(c1)OCO2 (centres unmarked)	15.6%
COc1cc(C2OC(c3cc(OC)c(OC)c(OC)c3)C(C)C2C)cc(OC)c1OC (centres unmarked)	0.51%
COc1ccc(NC(=O)c2ccc(S(=O)(=O)N3CCOCC3)cc2)c(OC)c1	-4.96%
COc1ccc(C(=O)Nc2ccccc2N2CCCC2)cc1S(=O)(=O)N1CCOCC1	-27.2%
CCn1ncc(/C=N/N=C2\CCC3C4CCc5cc(O)ccc5C4CCC23C)c1C (centres unmarked)	2.51%
COc1ccc(CC(=O)OCC(=O)NCc2ccco2)cc1	10.6%
